Source: PubChem BioAssay AID1345082 (National Center for Advancing Translational Sciences (NCATS), 2018)
In all, about 94,000 compounds went through this assay and about 4,000 (4.3%) were called active. This list was built around the results that the source calls inconclusive (neither active nor inactive); the mix of calls is not that of the screen. The call rests on the fitted dose curve; in most records, active means well fitted inhibition curve with a large enough effect; inconclusive means small, poorly fitted or top-dose-only effect; inactive means no such curve, though single readings can be large or run the other way. Potencies beside an inconclusive call are fits to weak or partial responses and may not hold up.
On the % scale 0 is the no-effect control and ±100 the full control effect; potency means the concentration at half of the fitted maximal effect; tags describe the fitted curve by direction and shape.

Test: Cytotoxic Profiling in NIH 3T3 Cell Line of Diverse Libraries Using Quantitative High-Throughput Screening; further: nearly all actives have a fitted effect of over 55% in size
Settings: NIH 3T3 viability, CellTiter-Glo ATP luminescence, 48-72 h; activity change, negative = cytotoxicity: at 96.7 µM (top of the series); series mostly up to 96.7 µM
Outline: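 NIH 3T3 cells at 400 cells/well received 23 nL of compound by pintool and were incubated 48 or 72 h at 37 °C. Viability was read as ATP-coupled CellTiter-Glo luminescence.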
For CN1CCC2(C1)CN(Cc1ccccc1)c1ccc(C(=O)Nc3ccn(C)n3)cc12 (configuration not stated), the Potency was inconclusive: 31.6 µM [inhibitor, full curve, poor fit]. For COc1ccc(-n2nc3n(c2=O)CCN(Cc2cccc4ccccc24)C3)cc1, the Potency was inconclusive: 44.7 µM [inhibitor, partial curve, poor fit]. With O=C(C1CCCCC1)N1CCCC(c2noc(COc3ccccc3)n2)C1 (configuration not stated) the Potency was inconclusive: 50.1 µM [inhibitor, single point]. In the case of O=C(CCC1CCCN(S(=O)(=O)c2ccccc2)C1)N1CCN(c2ccccn2)CC1 (configuration not stated), the Potency is reported as inconclusive: 44.7 µM [inhibitor, partial curve, poor fit]. In the case of CN1CCc2c([nH]c3ccccc23)C12CCN(C(=O)c1cc(CN3CCOCC3)on1)CC2, the “activity change, negative = cytotoxicity” value is reported as inactive: -17.9%. With O=C(C1CC1)N1CCC2(CC1)CCN(Cc1cccs1)c1ccccc1O2 the Potency was inconclusive: 39.8 µM [inhibitor, partial curve, poor fit]. In the case of CCC(CC)c1cc([C@H]2CN3CC[C@H]2C[C@@H]3CNC(=O)c2cc(OC)c(OC)c(OC)c2)nc(-c2ccncc2)n1, the Potency is reported as active: 20 µM. In the case of O=C(c1ccc(C(F)(F)F)cc1)N1CCC(C(=O)N2CCC(c3ccccc3)CC2)CC1, the Potency is reported as inconclusive: 50.1 µM [inhibitor, partial curve, poor fit]. For O=C(NCc1cccs1)c1nc2sccn2c1-c1ccc(C(F)(F)F)cc1, the Potency was inconclusive: 44.7 µM [inhibitor, partial curve, poor fit]. In the case of Cc1cccc(Cn2nc3n(c2=O)CCCCC3)c1, the “activity change, negative = cytotoxicity” value is reported as inactive: -6.56%. For c1ccc(C(c2ccccc2)N2CCN(Cc3nc(-c4ccccn4)no3)CC2)cc1, the Potency was inconclusive: 79.4 µM [inhibitor, single point]. In the case of O=S(=O)(c1ccc(F)cc1)N1CCCC(Cc2noc(-c3ccccc3)n2)C1 (configuration not stated), the Potency is reported as inconclusive: 50.1 µM [inhibitor, partial curve, poor fit]. In the case of COc1ccccc1Nc1cnc2ccc(-c3ccc(F)cc3)nn12, the Potency is reported as inconclusive: 35.5 µM [inhibitor, full curve]. For CCCc1nnc(C[C@@H]2C[C@@H](C(C)C)[C@H](CN3CCN(CCO)CC3)C=C2C)o1, the Potency was inconclusive: 126 µM [inhibitor, single point]. With CCCN1CCCCC12Cc1ccccc1CN(C(=O)C1CCCC1)C2 (configuration not stated) the Potency was inconclusive: 70.8 µM [inhibitor, partial curve, poor fit]. For Cc1noc2c(NCCN3CCOCC3)cc(-c3ccsc3)nc12, the Potency was inconclusive: 79.4 µM [inhibitor, partial curve]. With O=C(NCC1Cn2cccc2CN1Cc1ccccc1)c1ccoc1 (configuration not stated) the Potency was inconclusive: 70.8 µM [inhibitor, single point]. In the case of CC(C)CNC(=O)c1ccc2nnc(-c3cccc(C(F)(F)F)c3)n2c1, the Potency is reported as inconclusive: 11.2 µM [inhibitor, full curve, poor fit]. In the case of Cc1cccc(C2CCCN(C(=O)c3cn(CCc4ccccc4)nn3)C2)c1 (configuration not stated), the Potency is reported as inconclusive: 56.2 µM [inhibitor, partial curve, poor fit]. For Cc1nn(C)cc1CN1C[C@@H]2C(=O)N(Cc3ccc4c(c3)OCO4)C(=O)[C@@H]2C1, the Potency was inconclusive: 50.1 µM [inhibitor, partial curve, poor fit]. In the case of Cn1ncc2c(C(=O)Nc3cccc(C(F)(F)F)c3)cc(-c3ccccc3F)nc21, the Potency is reported as inconclusive: 35.5 µM [inhibitor, partial curve]. With COc1ccc(C(=O)Nc2ccc([C@H]3OCC(=O)N(Cc4ccncc4)[C@@H]3CO)cc2)cc1OC the Potency was active: 89.1 µM. With COCc1ccc2c(c1)c(OC(C)(C)C(=O)NC1CCOCC1)nn2Cc1ccccc1 the Potency was inconclusive: 50.1 µM [inhibitor, partial curve]. For CCN1c2cc(C(=O)Nc3ccc(OC)cc3OC)ccc2C(=O)N2CCCCC21 (configuration not stated), the Potency was inconclusive: 50.1 µM [inhibitor, partial curve, poor fit]. For O=C(Nc1ccc(-c2cccc(F)c2)cc1)C1CCCN1Cc1cnc[nH]1 (configuration not stated), the Potency was inconclusive: 7.94 µM [inhibitor, full curve]. With O=C(Cc1ccccc1)N1CCC2(CC1)COc1ccccc1[S+](=O)([O-])N2 the “activity change, negative = cytotoxicity” value was inactive: 0.142%. For CCOCc1nc(C2CCCN(C(=O)NCc3ccc(F)cc3)C2)no1 (configuration not stated), the “activity change, negative = cytotoxicity” value was inactive: -10.1%. With CC(=O)Nc1ccc(CN2C(=O)OC3(CCN(C(=O)c4cccc(C#N)c4)CC3)C2(C)c2ccccc2)cc1 (configuration not stated) the Potency was inconclusive: 50.1 µM [inhibitor, partial curve, poor fit]. In the case of OCC1(CCc2ccccc2)CCNCC1, the “outcome” value is reported as “inactive”. In the case of O=C(C1CCCN1C(=O)c1cccc(-c2ccccn2)c1)N1CCN(Cc2ccccc2)CC1 (configuration not stated), the “activity change, negative = cytotoxicity” value is reported as inactive: -25.4%. For COc1ccccc1N1CCN(C(=O)C[C@@H]2C[C@@H](C(C)C)[C@H](CC#N)C=C2C)CC1, the Potency was inconclusive: 112 µM [inhibitor, partial curve, poor fit]. In the case of COC[C@@H]1CN(C(=O)Cc2ccc(F)cc2)C[C@H]1c1ccncc1, the “activity change, negative = cytotoxicity” value is reported as inactive: -14.6%. In the case of C#CCNC(=O)c1cc(C(C)(C)C)nc2c1cnn2C, the Potency is reported as inconclusive: 44.7 µM [inhibitor, partial curve, poor fit]. In the case of COc1ccc(CN2C(=O)COC[C@@H]2[C@H](O)c2ccc(NC(=O)Cc3ccccc3)cc2)cc1, the Potency is reported as inconclusive: 50.1 µM [inhibitor, partial curve, poor fit]. In the case of CCc1cccc2c(C(CC(=O)NCC(C)C)c3cccc([N+](=O)[O-])c3)c[nH]c12 (configuration not stated), the Potency is reported as active: 35.5 µM. With O=C1CCN(C(=O)CC2CCCC2)CCCC(c2nc(-c3cccnc3)no2)CCN1 (configuration not stated) the “activity change, negative = cytotoxicity” value was inactive: -14.5%. In the case of O=C(c1nc2cccnc2n(CCc2ccccc2)c1=O)N1CCN([S+](=O)([O-])c2cccs2)CC1, the Potency is reported as inconclusive: 44.7 µM [inhibitor, partial curve, poor fit]. For Cc1ccccc1-c1cnc2[nH]cc(CC(=O)NCCN3CCOCC3)c2c1, the Potency was inconclusive: 89.1 µM [inhibitor, partial curve, poor fit]. In the case of COC(=O)[C@@H]1Cc2ncn(C(C)C)c2CN1C(=O)c1ccc(C(F)(F)F)cc1, the “activity change, negative = cytotoxicity” value is reported as inactive: -12.6% [at 174 µM]. With O=C(c1cnc2c(c1)N(C(=O)CCc1ccccc1)CCC2)N1CCC(c2ccccc2)CC1 the Potency was inconclusive: 50.1 µM [inhibitor, partial curve, poor fit]. For COc1cccc(CN2CCOC3CCN(Cc4ccccc4Cl)CC3C2=O)c1 (configuration not stated), the “activity change, negative = cytotoxicity” value was inactive: -28.7% [at 138 µM]. For Cc1ccc([S+](=O)([O-])N2CCN(Cc3ccccc3-c3ccccc3F)CC2)cc1, the Potency was inconclusive: 44.7 µM [inhibitor, partial curve]. With CCN1Cc2nc(OC)c(CNC(=O)c3cc(C4CC4)[nH]n3)cc2C1=O the Potency was inconclusive: 89.1 µM [inhibitor, single point]. With O=C(NCCCc1ccccc1)c1cc(-c2ccccc2)c2nncn2n1 the Potency was inconclusive: 44.7 µM [inhibitor, partial curve, poor fit]. With O=C(Nc1ccc([C@H]2OCC(=O)N(Cc3ccccc3)[C@@H]2CO)cc1)C1CCOCC1 the Potency was inconclusive: 28.2 µM [inhibitor, full curve]. With Cc1ccc(C)c(Cn2ccn3nc4c(c3c2=O)CCCC4)c1 the Potency was inconclusive: 44.7 µM [inhibitor, partial curve, poor fit]. With O=C(C1CC1)N1CCCC(c2noc(COc3ccccc3F)n2)C1 (configuration not stated) the Potency was inconclusive: 44.7 µM [inhibitor, partial curve, poor fit]. With COc1ccc(C2Cn3nnc(C(=O)N4CCN(C(=O)c5ccccc5Cl)CC4)c3CO2)cc1 (configuration not stated) the Potency was inconclusive: 31.6 µM [inhibitor, single point]. In the case of Cc1nc(-c2ccc(F)cc2)n(CC(=O)NCc2ccc3c(c2)OCO3)c(=O)c1CCO, the Potency is reported as inconclusive: 50.1 µM [inhibitor, partial curve, poor fit]. In the case of c1ccc(C2(c3ccccc3)CCCN(CCCn3cnnn3)C2)cc1, the Potency is reported as inconclusive: 70.8 µM [inhibitor, partial curve]. For CC(=O)c1cc(C(=O)N2CCC(O)(c3ccc(C)cn3)CC2)c(=O)[nH]c1C, the “activity change, negative = cytotoxicity” value was inactive: -1.43%. With Cn1nccc1C(=O)N1C[C@@H](Oc2ccccc2)C[C@@H]1C(=O)N1CCOCC1 the “activity change, negative = cytotoxicity” value was inactive: -17.9%. For COc1cccc(Nc2ncc3c(n2)C(C)(C(=O)NCCCn2ccnc2)CC3)c1 (configuration not stated), the Potency was active: 25.1 µM. With O=C(NCc1ccc(C(F)(F)F)cc1)C1CCN(C(=O)c2ccc(-c3cccs3)cc2)CC1 the Potency was active: 7.08 µM. For O=C(c1ccccc1)N1CCN(c2nccc(Nc3ccccc3Cl)n2)CC1, the Potency was inconclusive: 35.5 µM [inhibitor, partial curve, poor fit]. In the case of O=C(Nc1cccc(Cl)c1)c1nc2sccn2c1-c1ccncc1, the Potency is reported as inconclusive: 50.1 µM [inhibitor, partial curve, poor fit]. For COCCC(=O)N1CCc2c(n(Cc3ccc(OC)cc3)n(Cc3ccccc3)c2=O)C1, the Potency was inconclusive: 56.2 µM [inhibitor, partial curve, poor fit]. For COc1ccc(-c2nc3nccc(-c4ccco4)n3n2)c(OC)c1, the Potency was inconclusive: 28.2 µM [inhibitor, full curve]. With CC(C)(C)C(=O)N1CCCN(c2ccc3nnc(C4CC4)n3n2)CC1 the “activity change, negative = cytotoxicity” value was inactive: -27.6%. For COc1ccccc1-c1ccc(C(=O)N2CCC(NC(C)=O)CC2)cc1, the “activity change, negative = cytotoxicity” value was inactive: -19.4%. For COc1ccc(-c2cc(-c3cn[nH]c3)c3cncn3c2)cn1, the Potency was inconclusive: 100 µM [inhibitor, partial curve, poor fit]. In the case of COc1cccc(-c2ccc(CN3CCCC(NC(=O)c4ccc(C)cc4)C3)cc2)c1 (configuration not stated), the Potency is reported as inconclusive: 31.6 µM [inhibitor, partial curve].
